In article PMC4336329 (PLoS ONE, 2015):
Hit rate of the full screen: of about 310,000 compounds, about 14,000 (4.5%) showed an effect of 50% or more. Effects have a minus sign here. This is one part of the list.

target: human ether-à-go-go-related gene (hERG) potassium channel (human, UniProt Q12809); test: primary screen, population patch clamp on CHO cells stably expressing hERG
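Further: peak tail current of the secondary pulse compared with the same well before compound.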

Sequence of human ether-à-go-go-related gene (hERG) potassium channel (Q12809 whole entry, looked up): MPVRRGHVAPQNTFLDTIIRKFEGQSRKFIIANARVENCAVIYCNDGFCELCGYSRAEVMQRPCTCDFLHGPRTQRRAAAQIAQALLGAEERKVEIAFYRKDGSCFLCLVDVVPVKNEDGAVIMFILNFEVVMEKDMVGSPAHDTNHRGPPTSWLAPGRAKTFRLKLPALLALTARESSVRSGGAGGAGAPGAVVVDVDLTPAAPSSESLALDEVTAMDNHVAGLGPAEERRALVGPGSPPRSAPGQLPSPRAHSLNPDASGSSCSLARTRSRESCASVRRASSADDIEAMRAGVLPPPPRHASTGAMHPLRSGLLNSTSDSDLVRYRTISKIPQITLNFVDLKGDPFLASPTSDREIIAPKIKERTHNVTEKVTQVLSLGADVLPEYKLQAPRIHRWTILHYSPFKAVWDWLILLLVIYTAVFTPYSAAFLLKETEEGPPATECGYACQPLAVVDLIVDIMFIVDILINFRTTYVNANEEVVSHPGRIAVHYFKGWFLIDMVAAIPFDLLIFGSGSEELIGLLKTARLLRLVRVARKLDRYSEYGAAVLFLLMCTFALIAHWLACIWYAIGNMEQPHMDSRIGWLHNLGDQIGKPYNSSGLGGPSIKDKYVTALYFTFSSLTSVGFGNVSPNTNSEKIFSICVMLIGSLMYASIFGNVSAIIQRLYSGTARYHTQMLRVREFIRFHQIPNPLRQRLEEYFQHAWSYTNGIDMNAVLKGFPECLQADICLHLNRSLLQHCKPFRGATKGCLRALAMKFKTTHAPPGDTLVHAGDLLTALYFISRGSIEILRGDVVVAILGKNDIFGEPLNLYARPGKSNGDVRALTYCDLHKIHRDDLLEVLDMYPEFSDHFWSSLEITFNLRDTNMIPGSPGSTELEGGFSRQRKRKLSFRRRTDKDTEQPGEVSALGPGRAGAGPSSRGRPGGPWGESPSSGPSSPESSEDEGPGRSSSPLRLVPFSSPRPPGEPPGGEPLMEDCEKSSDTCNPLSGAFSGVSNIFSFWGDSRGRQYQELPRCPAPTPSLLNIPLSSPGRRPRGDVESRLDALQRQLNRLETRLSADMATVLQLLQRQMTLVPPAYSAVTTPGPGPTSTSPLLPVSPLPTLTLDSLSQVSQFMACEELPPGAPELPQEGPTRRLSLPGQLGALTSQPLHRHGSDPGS

Point of comparison: c1ccc(-n2nnnc2-c2cccnc2)cc1, “hERG current change (%, negative = inhibition) at 10uM” value -5.3%. Against it:
- COc1ccc(Cl)cc1C(=O)N1CCC2(CC1)CC(=O)c1ccccc1O2 — lower, -80.5%
- CCOCCCNC(=S)N1CCCN(c2nc3cc(C)ccc3cc2C#N)CC1 — lower, -30.9%
- Cn1c(=O)c2c(nc(NCc3ccco3)n2CCc2ccccc2)n(C)c1=O — lower, -25.8%
- O=C(NC1CCCCCC1)C(=S)NCc1ccccc1 — higher, 5.94%
- C#C[C@]1(O)CCC2C3CCC4=Cc5oncc5CC4(C)C3CCC21C (some centres unmarked) — higher, -3.2%
- CN(Cc1nc(-c2cccc(Cl)c2)no1)C1CCOCC1 — lower, -22.7%
- O=C(Cc1ccc(-n2c(=O)c3ccccc3n(Cc3cccc([N+](=O)[O-])c3)c2=O)cc1)NCC1CCCO1 (centres unmarked) — lower, -11.1%
- O=S(=O)(Nc1cccc(-c2cn3c(n2)SCC3)c1)c1ccccc1 — higher, 3.05%
- CN(Cc1ccccc1)C(=O)c1cccc(N2C(=O)C3CC=CCC3C2=O)c1 (centres unmarked) — higher, 16.3%
- C=CCN1C(=O)C(=O)N(Cc2nc3ccccc3s2)C1=O — higher, 13%
- O=C(Nc1ccc(F)c(Cl)c1)C1CCCCC1 — lower, -24.1%
- Cc1nnc(NC(=O)c2cc(-c3ccncc3)nc3c(C)cccc23)s1 — higher, 24.5%
- CCOC(=O)C(NCc1ccc(F)cc1)(NC(=O)c1ccccc1)C(F)(F)F (centres unmarked) — lower, -6.41%
- Cc1cc(C)nc(N/C(=N/S(=O)(=O)Cc2ccccc2)Nc2ccccc2)n1 — higher, 8.02%
- CC(=O)Nc1cccc(C(=O)OCc2csc(CC(=O)Nc3ccccc3C)n2)c1 — lower, -14%
- O=C(COC(=O)C1CC1)Nc1ccc(OC(F)F)cc1 — lower, -13.9%
- COc1ccc(C/C(C)=N/NC(=S)Nc2ccc(C(C)C)cc2)cc1 — higher, 15.4%
- C[C@H](NC(N)=O)C(=O)Nc1ccc(N2CCOCC2)c(S(=O)(=O)Nc2ccc(Cl)cc2)c1 — higher, 11.4%
- COC(=O)c1c[nH]n2c(=O)cc(CCl)nc12 — higher, 5.31%
- O=C(CSc1nnnn1-c1ccccc1)NC(=O)NCc1ccco1 — lower, -8.79%
- O=C(CSc1nnc2ccccn12)NCCc1ccc(Cl)cc1 — lower, -14.9%
- CC(=O)c1ccc(OC(=O)c2ccc(Br)o2)cc1 — higher, -3.64%
- CCN(CC)c1ccc(CNc2nc3ccccc3n2CCN2CCCCC2)cc1 — lower, -74.5%
- O=C(CSc1n[nH]c(=O)n1Cc1ccco1)Nc1ccccc1Cl — higher, -3.39%
- CCCCSc1nc2sc3c(c2c(=O)[nH]1)CCC3 — higher, -4.45%
- CCOC(=O)C1(CCOc2ccccc2)CCN(Cc2cccc(-n3cccn3)c2)CC1 — lower, -79.3%
- CN1CCN(S(=O)(=O)c2ccc(NC(=O)COc3ccccc3)cc2)CC1 — higher, 19.1%
- O=C(c1ccc(-c2cccc(Cl)c2Cl)o1)N1CCOCC1 — lower, -19.2%
- CNc1nc(CCN2C(=O)c3ccccc3C2=O)cs1 — higher, 6.81%
- O=S(=O)(c1ccccc1)c1nc(-c2ccc(F)cc2)oc1NCC1CCCO1 (centres unmarked) — lower, -34.6%
- CCOc1ccc(C(C(=O)NC2CCCC2)N(C(=O)c2snc(C(N)=O)c2N)C2CCCC2)cc1 (centres unmarked) — lower, -51.1%
- CCc1ccc(N(C(C)=O)C2C=CS(=O)(=O)C2)cc1 (centres unmarked) — lower, -6.3%
- COc1ccc(-c2cc(C(=O)NC3CCCC3)c3ccccc3n2)cc1 — lower, -21.6%
- CC(C)CN(C(=O)COC(=O)Cc1c[nH]c2ccccc12)c1c(N)n(Cc2ccccc2)c(=O)[nH]c1=O — higher, 13.4%
- CNC(=O)C(=O)NCC(c1cccs1)S(=O)(=O)c1ccc(F)cc1 (centres unmarked) — higher, 12.5%
- COC(=O)c1ccc(NC(=O)CSc2ccc(-c3ccccn3)nn2)cc1 — higher, 12.3%
- CCN(Cc1ccccc1)C(c1cc2ccc(C)cc2[nH]c1=O)c1nnnn1CCOC (centres unmarked) — lower, -25%
- Cc1ccc(S(=O)(=O)NCCC(=O)Nc2cccc(S(N)(=O)=O)c2)cc1C — higher, 17.6%
- Cc1cccc(C)c1OCC(=O)OCC(=O)c1ccc2c(c1)NC(=O)CO2 — lower, -14.7%
- CN(CC(=O)Nc1ccccc1C(F)(F)F)C(=O)CSc1nnnn1C — higher, 16.4%
- CCn1c(CNC(=O)c2cccc(C)c2)nnc1SCC(=O)N1CCOCC1 — higher, 3.52%
- COc1ccc(-n2nc(C(=O)O)cc2-c2ccccc2)cc1 — higher, 19.5%
- Cc1ccc(Nc2nc3ccccc3nc2-n2nc(C)cc2C)cc1 — higher, 6.44%
- CCn1cc(C(=O)NCCCN2CC(C)CC(C)C2)c2cc(OC)c(OC)cc2c1=O (centres unmarked) — higher, 6.72%
- CCc1nc(Nc2cccc(O)c2)c2oc3ccccc3c2n1.Cl — higher, 12.4%
- CC(C(=O)Nc1ccncc1)(c1ccccc1)c1ccccc1 — lower, -39.4%
- CN(Cc1cccs1)C(=O)Cc1csc(-c2ccccc2)n1 — higher, 0.862%
- CCCOc1cccc(C(=O)Nc2ccccc2C(=O)N2CCN(C)CC2)c1 — lower, -43.2%
- C=CCNC(=O)CC1C(=O)NCCN1Cc1ccc(-c2ccccc2)cc1 (centres unmarked) — lower, -7.59%
- O=C(NCCC1CCCCN1S(=O)(=O)c1ccccc1)C(=O)NCc1ccccc1F (centres unmarked) — higher, 1.99%
- Cc1ccc(NC(=O)CCCCCN2C(=O)[C@@H]3Cc4ccccc4CN3C2=O)cc1 — lower, -12.1%
- Cc1nc([N+](=O)[O-])c(N2CCOCC2)n1Cc1ccccc1 — higher, 9.64%
- Cc1ccccc1OCc1nnc(SC(C)C(=O)O)n1Cc1ccccc1 (centres unmarked) — higher, 21.5%
- CCCN(C(=O)c1cc(Cl)nc2ccccc12)C1CCS(=O)(=O)C1 (centres unmarked) — higher, 9.75%
- CCCC[C@@H]1C[C@H]1[C@@H](NC(=O)c1cccs1)c1ccc(Cl)cc1 — lower, -9.44%
